Experimental findings from patent US8440649B2 (priority 2009, dated 2013) are described below.

Molecules are shown by their SMILES.

The experiment deals with TGEV. The experiment is described as follows: microbe, parasite or virus in culture. The conditions noted are these: Alphacoronavirus 1, 6 h, read-out: EC50 for inhibiting TGEV S and N protein expression.
As usually defined, the EC50 is the concentration that produces a half-maximal response. In the case of `COc1cc2c3c(c4cc(OC)c(OC)cc4c2cc1OC)CN1CCCC1C3` (centres unmarked) [Compound 1], the half-maximal effective concentration (EC50) was less than 100 nM. Regarding `COc1ccc2c3c(c4cc(OC)c(OC)cc4c2c1)CN1CCCC1C3` (centres unmarked) [Compound 2], the EC50 is less than 100 nM. As for `COc1ccc2c(c1)c1c(c3cc(OC)c(OC)cc32)CN2CCCC2C1` (centres unmarked) [Compound 3], the EC50 was less than 100 nM. In the case of `COc1ccc2c(c1)c1c(c3cc(OC)c(OC)cc32)CC2CCCN2C1` (centres unmarked) [Compound 4], the concentration for a half-maximal effect (EC50) is less than 100 nM. As for `COc1ccc2c3c(c4cc(OC)c(OC)cc4c2c1)CC1CCCN1C3` (centres unmarked) [Compound 5], the EC50 is less than 100 nM. For the compound `COc1ccc2c3c(c4cc(OC)c(OC)cc4c2c1)CN1CCCC1C3O` (centres unmarked) [Compound 6], the concentration giving a half-maximal response (EC50) is less than 100 nM. For `COc1cc2c3c(c4cc(OC)c(OC)cc4c2cc1OC)C[N+]1([O-])CCCC1C3` (centres unmarked) [Compound 8], the EC50 is less than 500 nM.

With `COc1cc2c3c(c4cc(OC)c(OC)cc4c2cc1OC)CN1CCCCC1C3` (centres unmarked) [Compound 11], the EC50 is less than 100 nM. On to `COc1cc2c3c(c4cc(OC)c(OC)cc4c2cc1OC)C(O)C1CCCCN1C3` (centres unmarked) [Compound 12], for which the 50% effective concentration (EC50) was less than 100 nM. With `COc1cc2c(cc1O)c1c(c3cc(OC)c(OC)cc32)CN2CCCCC2C1` (centres unmarked) [Compound 13], the concentration for a half-maximal effect (EC50) is less than 100 nM. On to `COc1cc2c3c(c4cc(OC)c(OC)cc4c2cc1O)CN1CCCCC1C3` (centres unmarked) [Compound 14], for which the EC50 is less than 100 nM. In the case of `COc1cc2c3c(c4cc(OC)c(OC)cc4c2cc1O)CC1CCCCN1C3` (centres unmarked) [Compound 15], the concentration for a half-maximal effect (EC50) is less than 100 nM. With `COc1cc2c(cc1O)c1c(c3cc(OC)c(OC)cc32)CC2CCCCN2C1` (centres unmarked) [Compound 16], the EC50 was less than 100 nM. For `COc1cc2c3c(c4cc(OC)c(OC)cc4c2cc1OC)C[N+]1([O-])CCCCC1C3` (centres unmarked) [Compound 18] the value was less than 100 nM; for `COc1cc2c3c(c4cc(OC)c(OC)cc4c2cc1OC)CN1CCCCCC1C3` (centres unmarked) [Compound 20], less than 500 nM. The result for `COc1cc2c3c(c4cc(OC)c(OC)c(OC)c4c2cc1OC)CC1CCCN1C3` (centres unmarked) [Compound 22] reads less than 500 nM; that for `COc1ccc2c3c(c4cc(OC)c(OC)cc4c2c1)CN1CCCCC1C3` (centres unmarked) [Compound 24], less than 500 nM. Consider `COc1cc2c3c(c4cc(OC)c(OC)c(OC)c4c2cc1OC)CC1CCCCN1C3` (centres unmarked) [Compound 26], for which the EC50 is less than 500 nM. On to `COc1cc2c3c(c4cc(OC)c(OC)cc4c2cc1OC)C(O)C1CCCN1C3` (centres unmarked) [Compound 29], for which the concentration giving a half-maximal response (EC50) was less than 500 nM. In the case of `COc1cc2c(cc1O)c1c(c3cc(OC)c(OC)cc32)CN2CCCC2C1O` (centres unmarked) [Compound 30], the EC50 is less than 100 nM. For `COc1cc2c3c(c4ccc(O)cc4c2cc1OC)C(O)C1CCCN1C3` (centres unmarked) [Compound 31] the value was less than 100 nM; for `COc1ccc2c3c(c4cc(OC)c(OC)cc4c2c1)CN1CCCC1C3OC(C)=O` (centres unmarked) [Compound 32], less than 500 nM; for `COc1cc2c3c(c4ccc(O)c(OC)c4c2cc1OC)C(O)C1CCCN1C3` (centres unmarked) [Compound 42], less than 100 nM.
